# Assay results reported in PMC12820563.
# The list shows a part of the results. The list includes weakly bound sequences.
# Target: T1, MBP-FoxP3dN (UniProt Q99JB6)
# T1 sequence: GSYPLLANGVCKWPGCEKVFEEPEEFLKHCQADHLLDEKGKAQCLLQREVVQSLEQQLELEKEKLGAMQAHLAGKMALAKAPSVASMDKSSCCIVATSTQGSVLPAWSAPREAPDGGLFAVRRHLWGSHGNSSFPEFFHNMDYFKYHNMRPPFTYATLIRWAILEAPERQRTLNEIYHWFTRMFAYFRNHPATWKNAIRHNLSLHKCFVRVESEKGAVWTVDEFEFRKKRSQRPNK
# Assay: PD-seq (MBP pull-down with sequencing)
# Settings: 20 mM Tris-HCl pH 7.5, 100 mM NaCl, 1.5 mM MgCl2, 0.4 uM protein, 0.1 uM dsDNA library, 30 min, room temperature, amylose pull-down; high values mean tight binding; double strand, one strand shown
row,Sequence,binding signal (RPM ratio (pull-down/input))
1,GATGATTGTTCTCCCAGCTGATGAATTCGCCGAATCGAGTAAACAAATTTTCCTAATCTTTCTGTTCAAGCGCCATCTAC,0.206
2,GATGATTGTTCTCCCAGCTGATGAATTTCGCAGCTCGAGTAAACAAATTTTCCTAATCTTTCTGTTCAAGCGCCATCTAC,2.01
3,GATGATTGTTCTCCCAGCTGATGAATTACGCGTCTCGAGTAAACAAATTTTCCTAATCTTTCTGTTCAAGCGCCATCTAC,4.2
4,GATGATTGTTCTCCCAGCTGATGAATTTCCATGGTCGAGTAAACAAATTTTCCTAATCTTTCTGTTCAAGCGCCATCTAC,0.263
5,GATGATTGTTCTCCCAGCTGATGAATTACATCTGTCGAGTAAACAAATTTTCCTAATCTTTCTGTTCAAGCGCCATCTAC,0.584
6,GATGATTGTTCTCCCAGCTGATGAATTGTTTGCCTCGAGTAAACAAATTTTCCTAATCTTTCTGTTCAAGCGCCATCTAC,5.67
7,GATGATTGTTCTCCCAGCTGATGAATTCGCCAATTCGAGTAAACAAATTTTCCTAATCTTTCTGTTCAAGCGCCATCTAC,0.326
8,GATGATTGTTCTCCCAGCTGATGAATTTGACGGCTCGAGTAAACAAATTTTCCTAATCTTTCTGTTCAAGCGCCATCTAC,0.334
9,GATGATTGTTCTCCCAGCTGATGAATTGCATAGCTCGAGTAAACAAATTTTCCTAATCTTTCTGTTCAAGCGCCATCTAC,0.698
10,GATGATTGTTCTCCCAGCTGATGAATTGGCGTTCTCGAGTAAACAAATTTTCCTAATCTTTCTGTTCAAGCGCCATCTAC,1.09
11,GATGATTGTTCTCCCAGCTGATGAATTGATGTGTTCGAGTAAACAAATTTTCCTAATCTTTCTGTTCAAGCGCCATCTAC,1.66
12,GATGATTGTTCTCCCAGCTGATGAATTCGCACTTTCGAGTAAACAAATTTTCCTAATCTTTCTGTTCAAGCGCCATCTAC,0.446
13,GATGATTGTTCTCCCAGCTGATGAATTGTTGAAGTCGAGTAAACAAATTTTCCTAATCTTTCTGTTCAAGCGCCATCTAC,0.394
14,GATGATTGTTCTCCCAGCTGATGAATTTTACCACTCGAGTAAACAAATTTTCCTAATCTTTCTGTTCAAGCGCCATCTAC,0.394
15,GATGATTGTTCTCCCAGCTGATGAATTCCGCCGCTCGAGTAAACAAATTTTCCTAATCTTTCTGTTCAAGCGCCATCTAC,2.27
16,GATGATTGTTCTCCCAGCTGATGAATTAAATTCCTCGAGTAAACAAATTTTCCTAATCTTTCTGTTCAAGCGCCATCTAC,0.381
17,GATGATTGTTCTCCCAGCTGATGAATTTGGCTGTTCGAGTAAACAAATTTTCCTAATCTTTCTGTTCAAGCGCCATCTAC,1.17
18,GATGATTGTTCTCCCAGCTGATGAATTATGAACGTCGAGTAAACAAATTTTCCTAATCTTTCTGTTCAAGCGCCATCTAC,0.433
19,GATGATTGTTCTCCCAGCTGATGAATTATCAGGGTCGAGTAAACAAATTTTCCTAATCTTTCTGTTCAAGCGCCATCTAC,0.24
20,GATGATTGTTCTCCCAGCTGATGAATTCGGCCTTTCGAGTAAACAAATTTTCCTAATCTTTCTGTTCAAGCGCCATCTAC,4.13

row,Sequence,binding signal (RPM ratio (pull-down/input))
1,GATGATTGTTCTCCCAGCTGATGAATTCAATAAGTCGAGTAAACAAATTTTCCTAATCTTTCTGTTCAAGCGCCATCTAC,0.244
2,GATGATTGTTCTCCCAGCTGATGAATTGTCTTAATCGAGTAAACAAATTTTCCTAATCTTTCTGTTCAAGCGCCATCTAC,0.358
3,GATGATTGTTCTCCCAGCTGATGAATTAAAAAACTCGAGTAAACAAATTTTCCTAATCTTTCTGTTCAAGCGCCATCTAC,0.235
4,GATGATTGTTCTCCCAGCTGATGAATTCCCACCGTCGAGTAAACAAATTTTCCTAATCTTTCTGTTCAAGCGCCATCTAC,0.235
5,GATGATTGTTCTCCCAGCTGATGAATTTCGATACTCGAGTAAACAAATTTTCCTAATCTTTCTGTTCAAGCGCCATCTAC,0.835
6,GATGATTGTTCTCCCAGCTGATGAATTCGGTCAGTCGAGTAAACAAATTTTCCTAATCTTTCTGTTCAAGCGCCATCTAC,0.269
7,GATGATTGTTCTCCCAGCTGATGAATTCGGGAACTCGAGTAAACAAATTTTCCTAATCTTTCTGTTCAAGCGCCATCTAC,0.208
8,GATGATTGTTCTCCCAGCTGATGAATTGACCCAATCGAGTAAACAAATTTTCCTAATCTTTCTGTTCAAGCGCCATCTAC,0.374
9,GATGATTGTTCTCCCAGCTGATGAATTTAGAGCCTCGAGTAAACAAATTTTCCTAATCTTTCTGTTCAAGCGCCATCTAC,0.551
10,GATGATTGTTCTCCCAGCTGATGAATTTCAAGCCTCGAGTAAACAAATTTTCCTAATCTTTCTGTTCAAGCGCCATCTAC,0.376
11,GATGATTGTTCTCCCAGCTGATGAATTTTTATTATCGAGTAAACAAATTTTCCTAATCTTTCTGTTCAAGCGCCATCTAC,0.779
12,GATGATTGTTCTCCCAGCTGATGAATTTTGCCGGTCGAGTAAACAAATTTTCCTAATCTTTCTGTTCAAGCGCCATCTAC,0.938
13,GATGATTGTTCTCCCAGCTGATGAATTCCATATTTCGAGTAAACAAATTTTCCTAATCTTTCTGTTCAAGCGCCATCTAC,0.551
14,GATGATTGTTCTCCCAGCTGATGAATTCTGACAGTCGAGTAAACAAATTTTCCTAATCTTTCTGTTCAAGCGCCATCTAC,0.458
15,GATGATTGTTCTCCCAGCTGATGAATTAGAAGGATCGAGTAAACAAATTTTCCTAATCTTTCTGTTCAAGCGCCATCTAC,0.225
16,GATGATTGTTCTCCCAGCTGATGAATTCCACGTATCGAGTAAACAAATTTTCCTAATCTTTCTGTTCAAGCGCCATCTAC,0.533
17,GATGATTGTTCTCCCAGCTGATGAATTAACGAACTCGAGTAAACAAATTTTCCTAATCTTTCTGTTCAAGCGCCATCTAC,0.224
18,GATGATTGTTCTCCCAGCTGATGAATTGCGGTAGTCGAGTAAACAAATTTTCCTAATCTTTCTGTTCAAGCGCCATCTAC,0.763
19,GATGATTGTTCTCCCAGCTGATGAATTTTCTGTCTCGAGTAAACAAATTTTCCTAATCTTTCTGTTCAAGCGCCATCTAC,0.253
20,GATGATTGTTCTCCCAGCTGATGAATTAGTCACTTCGAGTAAACAAATTTTCCTAATCTTTCTGTTCAAGCGCCATCTAC,1.66
